# Assay results as given in the supplement of paper PMC3334620.
# Over roughly 33,000 sequences, “E-score (-0.5 to 0.5)” has its median near -0.017; the highest 2% begin near 0.3. This is one part of the list.
# Biological target: T1, Sut1 (UniProt P53032)
# T1 sequence: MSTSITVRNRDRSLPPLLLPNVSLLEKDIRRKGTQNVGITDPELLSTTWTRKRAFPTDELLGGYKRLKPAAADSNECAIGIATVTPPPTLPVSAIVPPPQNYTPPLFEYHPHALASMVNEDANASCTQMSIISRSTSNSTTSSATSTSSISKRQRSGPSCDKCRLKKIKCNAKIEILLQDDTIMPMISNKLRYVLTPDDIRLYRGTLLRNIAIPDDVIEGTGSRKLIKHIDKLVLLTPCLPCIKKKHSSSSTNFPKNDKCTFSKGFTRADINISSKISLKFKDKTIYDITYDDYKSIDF
# Assay: PBM E-score (8-mer binding enrichment) (E-score (-0.5 to 0.5)); higher = stronger / more preferred TF binding; most listed sequences are background and not binding sites
# Conditions: protein concentration: 200 nM; construct: GST-full length
# In short: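 Yeast transcription factors carrying a GST tag, as full-length proteins or DNA-binding domains, were produced by PURExpress in vitro transcription/translation. About 100-200 nM protein was applied to universal all-10-mer Agilent arrays, double-stranded by primer extension on fresh or once-stripped slides. Bound protein was detected with fluorescent anti-GST, and scans were normalised with masliner. The Universal PBM Analysis Suite gave each ungapped eight-base word, pooled with its reverse complement, an E-score, a modified Wilcoxon-Mann-Whitney statistic.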
row,Sequence,PBM E-score
1,ACTACCGC,0.159
2,ACCGCGGC,0.154
3,CCCTTCGG,-0.0951
4,AAGGCTCG,-0.154
5,CCGTGGCC,-0.243
6,CAGGACCA,-0.0443
7,ATCCATGA,-0.103
8,CTGAAAAG,0.0451
9,ATTGCCAC,-0.0449
10,AGCGATTA,0.0691
11,GAGCGTAC,-0.18
12,GAACGTTC,-0.093
13,AGCCGAAG,-0.121
14,CTGAGCAA,-0.211
15,CCTTGCAC,-0.0952
16,GAGTGAAA,0.136
17,GACGTCTC,-0.194
18,ATCGTGCC,-0.0957
19,ATCTAGGG,-0.097
20,TCCAACCA,-0.0894
21,AGGCTCCC,-0.0884
22,CAGATCTC,-0.0481
23,ATTTAGGC,0.137
24,ACCAAAAA,0.29
25,AGCACACC,-0.0874

row,Sequence,PBM E-score
1,AACCAAAC,-0.02
2,ACCCCGGT,0.191
3,ATCCTAGG,-0.178
4,CCTACAGA,-0.145
5,AATGGGGT,-0.0202
6,CTGGAGCC,-0.204
7,ATTTGGGC,-0.154
8,GCCGAGGC,-0.133
9,GGTTAAAC,0.226
10,CGTAGTTC,-0.0748
11,GCAAACCA,0.0901
12,CTTAAGGC,-0.157
13,ATCGCTTC,-0.00337
14,AGCGAGAT,-0.0514
15,CGAGCACG,-0.112
16,CTATGCCA,-0.269
17,GCTAAACA,-0.0541
18,CTGCAGGC,-0.316
19,CAACCACG,0.0166
20,GGTTATAA,0.0773
21,GCCTCAAA,-0.162
22,AACCAAGG,-0.0306
23,AAAGGCGT,-0.0455
24,CGAGGATA,-0.16
25,AAGCCTAT,-0.00924

row,Sequence,PBM E-score
1,GAAGCGAC,-0.0313
2,ATCGTGGA,-0.152
3,CTAGCGGC,-0.102
4,CAGGCAGA,-0.19
5,GTAGCTAA,0.0175
6,AGAGGGTG,-0.223
7,AACTGGTC,0.0336
8,AGTAGGCC,-0.115
9,GCCGCGTA,-0.0906
10,CATGCCTC,0.0616
11,AGCCTTCG,-0.203
12,CATGCTCA,-0.0391
13,CCATAGGG,-0.147
14,CTAAGTGC,-0.215
15,CGTCATTC,0.173
16,TGCAAGCA,-0.132
17,AGTCGTCG,-0.145
18,GTCTGCGA,-0.15
19,AGATGATC,0.02
20,ATGCGCAA,-0.213
21,ATTATCCC,-0.0033
22,ACCAGCTA,-0.0983
23,ACTGCCCA,-0.175
24,CGTGAAAG,-0.122
25,GAGGACTC,-0.231

row,Sequence,PBM E-score
1,CCGTTTGC,0.111
2,AACTCCTA,0.147
3,AGATATTG,0.159
4,GTACCTGA,-0.0946
5,TATAAGCA,0.0991
6,AAGCACTG,0.112
7,GTAGTTCA,0.0978
8,CAAGGCAC,-0.175
9,CTGTGGAC,-0.172
10,CCCCGGGC,0.087
11,TAATGTGA,0.228
12,ATGGAGCC,-0.156
13,AGAAGTTG,-0.0573
14,AGTGGGGG,-0.35
15,CAATCCTC,0.0534
16,AATATGCT,0.176
17,ACGAATCA,0.17
18,CGGCCATC,-0.0876
19,TGACGCAA,-0.167
20,AACTGCAT,0.00562
21,AATACTGT,0.136
22,AACCTGAT,0.108
23,CACCGGCG,0.117
24,GGCAGAGA,-0.0763
25,AATATAAG,0.218

row,Sequence,PBM E-score
1,CCAGCTTA,-0.158
2,ACAACCCT,-0.0789
3,ATTTGAAA,0.268
4,GGATCGAC,-0.0516
5,ACCGTACG,-0.169
6,CCAAAGGA,-0.0234
7,ACATCAAA,0.126
8,ATCCGGAT,0.257
9,AGAGATGC,-0.257
10,ATGTCCAG,-0.171
11,AGAATTTC,0.0821
12,ATCCGGTA,0.135
13,GCTTATCC,-0.00262
14,CAATTCGA,0.0472
15,ATGTACAG,-0.0843
16,CGACGTAG,-0.228
17,CCAGGTAG,-0.0982
18,CAGTCCAC,-0.114
19,CTTCAAAG,0.0688
20,ATCAGGAT,0.095
21,ACCCTAGA,-0.173
22,CAGTTTTA,0.0952
23,ACTAAAGA,0.145
24,AGTTACCC,-0.0204
25,GACGCTGC,-0.109

row,Sequence,PBM E-score
1,GCCAATGA,-0.223
2,CTTACCGC,-0.0412
3,AGACGCAG,-0.0594
4,CGTGAGGA,-0.0289
5,ACTCAACA,0.155
6,GGACCGCA,0.0561
7,CTACCAAC,0.0725
8,CTCAGAAC,0.0425
9,AGTCCTTA,0.0102
10,CCGTTAAA,0.215
11,CACAGCCG,-0.234
12,AACATCGA,0.00177
13,ATCACAAA,0.0833
14,GCCAGGGA,-0.291
15,GGGGTAAC,-0.0954
16,CGGTTCAA,0.0598
17,AGCGTGGA,-0.232
18,ACAGGCTC,-0.095
19,ATTGCTAG,-0.0606
20,GGAGCTCA,0.0463
21,CGTGTTAA,-0.0435
22,GGCACACA,-0.0936
23,CATCCGAG,-0.0553
24,CGTGCCAC,-0.241
25,GCTTTCAA,0.0924

row,Sequence,PBM E-score
1,GAGTCTAA,0.171
2,CGGCTACG,-0.194
3,ACAAAGGG,-0.144
4,CGACAGAA,-0.0552
5,ATGTTTAA,0.104
6,AGAGAACG,0.0677
7,AGAAGTCA,0.0573
8,AGGCGCGC,-0.00675
9,CTCCTGCA,-0.178
10,ATACTGTC,0.103
11,AAGGGTTA,-0.019
12,CCGTCGAG,0.0557
13,GCGCCCCC,-0.34
14,ATTTTGCG,0.193
15,AAATAATT,0.338
16,ACGGGGGG,-0.348
17,AATATTCC,0.276
18,AATGAACC,0.0466
19,ACCACCGT,-0.0843
20,CGGCGCAC,-0.0137
21,CCGAATGA,0.224
22,AGCCTCAC,-0.0672
